Experimental data as given in PubChem BioAssay (Tox21).
Several values for one entry are separate records, joined by “and”; a condition that tells them apart may be missing. Equal values may be shown once. Inconclusive results, whose numbers are uncertain, are shown with a selection of clear calls. For some of these results: Potencies beside an inconclusive call are fits to weak or partial responses and may not hold up. Some structures have more than one record in an assay (separate samples or runs), and their calls can disagree. Activity calls are given as the source filed them. Unless noted, calls follow the shape of the dose curve; as a rule, active = well fitted curve in the direction sought with a large enough effect in the repeat runs; inconclusive = weak or mixed curves; inactive = no such curve, though single readings can be large; an effect the other way counts as inactive or inconclusive.

Columns and labels:
[1] = qHTS assay to identify small molecule agonists of H2AX (AID 1224845; active = well fitted activation curve with a large enough effect in the signal ratio in the repeat runs, not every such curve was filed as active; inconclusive = weak or mixed curves; the % refers to the signal ratio); settings: CHO-K1 phospho-H2AX Ser139 HTRF, 3 h; series mostly up to 154 µM
Summary of the method: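 Wild-type CHO-K1 cells, plated overnight, exposed 3hr at 37C to 15 concentrations (0.76% DMSO final). Lysed, then HTRF anti-pH2AX (S139) cryptate and anti-H2AX-d2 antibodies, 24 hr room temperature; 665/620 nm emission read.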

[2] = qHTS assay to identify small molecule agonists of H2AX - cell viability counter screen (AID 1224847; calls by dose curve; also: nearly all actives have a fitted effect of over 30% in size)
Summary of the method: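 Wild-type CHO-K1 cells (10% FBS medium) were plated overnight at 37C, exposed to compounds at 15 concentrations for 3 hr at 37C (0.76% DMSO final), and viability was read as CellTiter-Glo luminescence after 30 min at room temperature.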

[3] = A CellTox Green Cytotoxicity Assay to monitor cytotoxicity in HEK293 cells - 32 hour (AID 1224881); also: nearly all actives have a fitted effect of over 40% in size
Summary of the method: (§1)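 Cytotoxicity was tracked continuously in HEK293 cells by a DNA-binding dye excluded from viable cells. Compounds were transferred in DMSO 5 h after seeding; fluorescence was recorded at intervals up to 40 h.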

[4] = qHTS RealTime-Glo MT Cell Viability Assay in HepG2 cells - 24 hour (AID 1224867); also: nearly all actives have a fitted effect of over 50% in size
Summary of the method: (§2)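 Cell number in HepG2 cultures estimated from NanoLuc luminescence generated by metabolic reduction of a prosubstrate by living cells. The homogeneous, nonlytic format allowed repeated reads at 0, 8, 16, 24, 32 and 40 h of compound exposure.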

[5] = qHTS RealTime-Glo MT Cell Viability Assay in HEK293 cells - 32 hour (AID 1224868); also: nearly all actives have a fitted effect of over 50% in size
Summary of the method: (§3)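 Homogeneous bioluminescent viability format in HEK293 cells (600 cells/well). Following 5 h at 37 C/5% CO2, 23 nL compound was pintooled; the signal was measured repeatedly during 40 h incubation.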

[6] = qHTS RealTime-Glo MT Cell Viability Assay in HepG2 cells - 40 hour (AID 1224870); also: nearly all actives have a fitted effect of over 50% in size
Summary of the method: (§4)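 HepG2 cells (600/well) mixed with RealTime-Glo MT reagent, settled 5 h at 37 C/5% CO2 before compound addition. Nonlytic NanoLuc luminescence from viable-cell prosubstrate reduction read repeatedly during 40 h treatment at 37 C.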

[7] = qHTS RealTime-Glo MT Cell Viability Assay in HEK293 cells - 16 hour (AID 1224872); also: nearly all actives have a fitted effect of over 50% in size
Summary of the method: as §3

[8] = qHTS RealTime-Glo MT Cell Viability Assay in HepG2 cells - 8 hour (AID 1224873); also: nearly all actives have a fitted effect of over 55% in size
Summary of the method: as §4

[9] = qHTS RealTime-Glo MT Cell Viability Assay in HEK293 cells - 40 hour (AID 1224874); settings: RealTime-Glo luminescence; max response: stronger effect = lower value; also: nearly all actives have a fitted effect of over 50% in size
Summary of the method: (§5)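 Nonlytic bioluminescent viability monitoring. HEK293 at 600 cells/well with reagent; 5 h settle; compound transfer by pintool; plates held at 37 C and read at set time points.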

[10] = qHTS RealTime-Glo MT Cell Viability Assay in HepG2 cells - 32 hour (AID 1224877); also: nearly all actives have a fitted effect of over 55% in size
Summary of the method: as §2

[11] = A CellTox Green Cytotoxicity Assay to monitor cytotoxicity in HepG2 cells - 24 hour (AID 1224878); also: nearly all actives have a fitted effect of over 45% in size
Summary of the method: (§6)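 Real-time, homogeneous cytotoxicity readout: dead-cell DNA staining by CellTox Green in HepG2 monolayers, fluorescence measured at timed intervals up to 40 h of continuous compound exposure.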

[12] = A CellTox Green Cytotoxicity Assay to monitor cytotoxicity in HEK293 cells - 40 hour (AID 1224871); also: nearly all actives have a fitted effect of over 45% in size
Summary of the method: as §1

[13] = A CellTox Green Cytotoxicity Assay to monitor cytotoxicity in HEK293 cells - 24 hour (AID 1224875); also: nearly all actives have a fitted effect of over 45% in size
Summary of the method: as §1

[14] = qHTS RealTime-Glo MT Cell Viability Assay in HEK293 cells - 0 hour (AID 1224880); also: nearly all actives have a fitted effect of over 45% in size
Summary of the method: as §5

[15] = A CellTox Green Cytotoxicity Assay to monitor cytotoxicity in HepG2 cells - 16 hour (AID 1224876); also: nearly all actives have a fitted effect of over 45% in size
Summary of the method: as §6

[16] = A CellTox Green Cytotoxicity Assay to monitor cytotoxicity in HepG2 cells - 40 hour (AID 1224879); also: nearly all actives have a fitted effect of over 40% in size
Summary of the method: as §6
Potency is read from the fitted curve at half-maximal effect; tags tell the direction and shape of the fitted curve or compound fluorescence and quenching.

CC(C)(O)C#CC(C)(C)O
Potency [1]: inconclusive: 115 µM [rising, partial curve, poor fit]
Potency [2]: inactive
Potency [3]: inactive

Nc1ccc(N=Nc2ccccc2)c(N)n1
Potency [1]: inconclusive: 56.9 µM [cytotoxic, partial curve] and inconclusive: 50.5 µM [cytotoxic, partial curve] and inconclusive: 61.9 µM
Potency [2]: inconclusive: 127 µM [cytotoxic, single point]
Potency [4]: inconclusive: 49 µM [falling, partial curve, poor fit]
Potency [5]: inconclusive: 26.8 µM [cytotoxic, partial curve]
Potency [6]: inconclusive: 49 µM [falling, partial curve, poor fit]
Potency [7]: inconclusive: 27.7 µM [cytotoxic, partial curve] and inconclusive: 21.9 µM [cytotoxic, partial curve] and inconclusive: 21.3 µM [cytotoxic, partial curve]
Potency [8]: inconclusive: 43.6 µM [falling, partial curve, poor fit]
Potency [9]: inconclusive: 23.9 µM [cytotoxic, partial curve]
Potency [10]: inconclusive: 49 µM [cytotoxic, partial curve, poor fit]
Potency [11]: inconclusive: 26.8 µM [activator, single point]

C#C[C@]1(O)CC[C@H]2[C@@H]3CCC4=Cc5oncc5C[C@]4(C)[C@H]3CC[C@@]21C
Potency [1]: inconclusive: 127 µM [activator, single point]
Potency [2]: inconclusive: 55.2 µM [cytotoxic, single point]
Potency [12]: inconclusive: 26.8 µM [activator, single point]
Potency [3]: inconclusive: 26.8 µM [activator, single point]

CC(C)(C)CC(=O)OCC(=O)[C@@]1(O)CC[C@H]2[C@@H]3CCC4=CC(=O)C=C[C@]4(C)[C@H]3[C@@H](O)C[C@@]21C
Potency [1]: inactive
Potency [2]: active: 55.2 µM
Potency [7]: inconclusive: 19 µM [cytotoxic, partial curve]
Potency [13]: inconclusive: 8.49 µM [activator, partial curve, poor fit]
Potency [14]: active: 7.56 µM
Potency [3]: inconclusive: 9.52 µM [activator, single point]

CCc1nc(N)nc(N)c1-c1ccc(Cl)cc1
Potency [1]: active: 22.9 µM
Potency [2]: active: 8.98 µM and active: 12.4 µM
Potency [5]: active: 3.52 µM and active: 12.3 µM and inconclusive: 4.25 µM [cytotoxic, full curve]
Potency [7]: inconclusive: 12.5 µM [cytotoxic, partial curve] and inconclusive: 43.6 µM [cytotoxic, partial curve]
Potency [15]: inactive
Potency [16]: inconclusive: 49.7 µM [activator, partial curve]
Potency [3]: inactive

CN1C[C@H](C(=O)N[C@]2(C)O[C@@]3(O)[C@@H]4CCCN4C(=O)[C@H](Cc4ccccc4)N3C2=O)C[C@@H]2c3cccc4[nH]cc(c34)C[C@H]21
Potency [1]: inconclusive: 55.2 µM [activator, single point]
Potency [2]: inconclusive: 55.2 µM [cytotoxic, single point]
Potency [4]: inconclusive: 26.8 µM [falling, single point]
Potency [6]: inconclusive: 30.1 µM [falling, single point]
Potency [12]: inconclusive: 26.8 µM [activator, single point]
Potency [7]: active: 23.9 µM
Potency [8]: inconclusive: 26.8 µM [falling, single point]
Potency [13]: inconclusive: 26.8 µM [activator, partial curve, poor fit]
Potency [15]: inconclusive: 19 µM [activator, partial curve, poor fit]
Potency [10]: inconclusive: 26.8 µM [cytotoxic, single point]
Potency [11]: inconclusive: 26.8 µM [activator, single point]
Potency [16]: inconclusive: 23.9 µM [activator, partial curve, poor fit]
Potency [3]: inconclusive: 26.8 µM [activator, single point]

C/C=C/C=C/COC(=O)C(C)C
Potency [1]: inconclusive: 89.8 µM [activator, partial curve, poor fit]
Potency [2]: inconclusive: 89.8 µM [rising, partial curve]
Potency [4]: inconclusive: 43.6 µM [falling, partial curve, poor fit]
Potency [5]: inconclusive: 61.6 µM [cytotoxic, single point]
Potency [6]: inconclusive: 54.9 µM [falling, single point]
Potency [12]: inconclusive: 54.9 µM [activator, single point]
Potency [7]: inconclusive: 54.9 µM [cytotoxic, single point]
Potency [9]: inconclusive: 54.9 µM [cytotoxic, single point]
Potency [10]: inconclusive: 43.6 µM [cytotoxic, partial curve]
Potency [11]: inconclusive: 34.7 µM [activator, partial curve]
Potency [16]: active: 43.6 µM
Potency [3]: inconclusive: 61.6 µM [activator, single point]
